PMC4336329 (PLoS ONE, 2015)
Screen size: about 310,000 compounds; about 14,000 (4.5%) showed an effect of 50% or more. The effect is printed as a negative number. The list shows a part of the results.

Target: human ether-à-go-go-related gene (hERG) potassium channel (human, UniProt Q12809)
Assay: primary screen, population patch clamp on CHO cells stably expressing hERG
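Also: peak tail current of the secondary pulse compared with the same well before compound.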

Chain of human ether-à-go-go-related gene (hERG) potassium channel (Q12809 whole entry, looked up): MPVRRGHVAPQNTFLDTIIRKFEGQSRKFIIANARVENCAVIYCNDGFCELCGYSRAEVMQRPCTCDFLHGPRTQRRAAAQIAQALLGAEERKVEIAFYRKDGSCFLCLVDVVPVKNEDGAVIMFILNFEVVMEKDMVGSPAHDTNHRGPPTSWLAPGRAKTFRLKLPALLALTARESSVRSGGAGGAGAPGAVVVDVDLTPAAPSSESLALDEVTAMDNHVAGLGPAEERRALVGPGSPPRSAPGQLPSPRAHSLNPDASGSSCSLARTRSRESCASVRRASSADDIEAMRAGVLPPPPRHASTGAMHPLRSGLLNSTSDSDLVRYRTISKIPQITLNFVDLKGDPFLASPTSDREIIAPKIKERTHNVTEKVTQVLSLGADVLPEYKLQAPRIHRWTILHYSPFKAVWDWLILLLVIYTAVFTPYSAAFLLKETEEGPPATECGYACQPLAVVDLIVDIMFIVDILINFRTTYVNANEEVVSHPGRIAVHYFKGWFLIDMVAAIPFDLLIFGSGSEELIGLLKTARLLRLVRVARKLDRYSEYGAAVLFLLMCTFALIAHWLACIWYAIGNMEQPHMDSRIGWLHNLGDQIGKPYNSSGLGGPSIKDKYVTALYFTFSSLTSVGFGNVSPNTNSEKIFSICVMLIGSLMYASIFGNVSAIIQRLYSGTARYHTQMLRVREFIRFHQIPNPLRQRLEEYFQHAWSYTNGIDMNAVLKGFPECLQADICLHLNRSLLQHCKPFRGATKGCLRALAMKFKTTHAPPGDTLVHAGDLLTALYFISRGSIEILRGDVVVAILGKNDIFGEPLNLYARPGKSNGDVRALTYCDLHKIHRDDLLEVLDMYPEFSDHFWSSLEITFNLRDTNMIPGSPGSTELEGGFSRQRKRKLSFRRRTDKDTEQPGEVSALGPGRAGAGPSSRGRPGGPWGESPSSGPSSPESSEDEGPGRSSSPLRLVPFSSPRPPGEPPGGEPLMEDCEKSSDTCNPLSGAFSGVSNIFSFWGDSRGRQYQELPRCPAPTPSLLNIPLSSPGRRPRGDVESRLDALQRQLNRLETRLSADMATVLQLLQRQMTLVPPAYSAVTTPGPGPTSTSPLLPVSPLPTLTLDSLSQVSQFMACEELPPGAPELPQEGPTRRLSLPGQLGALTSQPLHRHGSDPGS

Compound	hERG current change (%, negative = inhibition) at 10uM [%]
Cc1cccc(C)c1NC(=S)NN1CCN(C)CC1	8.97
Cc1cc(OCC(=O)NC2CCN(C)CC2)ccc1[N+](=O)[O-]	-1.32
COc1cccc(CNC(=O)c2cc3oc4ccccc4c3n2C)c1OC	13.4
Cc1ccc(C(=O)N/C(=C\c2cn(C)c3ccccc23)C(=O)N2CCN(C)CC2)cc1	-10.8
COCC(=O)Nc1ccccc1NC(C)=O	-5.64
O=C(/C=C/c1ccco1)N1CCN(c2ccc(F)cc2)CC1	-14.8
Cc1ccsc1/C=N/n1cnc2sc(C)c(C)c2c1=O	-3.99
O=c1c2cc3c(cc2[nH]c(=S)n1CCN1CCOCC1)OCO3	9.66
CCc1cccc(OCC(=O)Nc2ccc(S(=O)(=O)Nc3ccccn3)cc2)c1	6.47
CCN(CC)C(=O)c1ccc(-c2nnc(OC)c3ccccc23)cc1	-11.8
COc1cccc(-n2c(=O)c3c(C)c(C(=O)N(C)C)sc3n(CC(=O)NCC3CCCO3)c2=O)c1 (centres unmarked)	13
Cc1ccc(N=Cc2sc(O)c3ccccc23)cc1	10.6
COc1ccc(NC(=S)N2CCc3ccccc3C2)cc1	-5.61
CCC(=O)N1CCN(c2ccc(NC(=O)c3ccc4c(c3)OCO4)cc2)CC1	-0.905
CC1CCN(C(=S)Nc2cccc(S(=O)(=O)N(C)C)c2)CC1	11.1
CN(CC(=O)Nc1ccccc1N1CCOCC1)S(=O)(=O)c1ccc(Cl)cc1	5.93
COc1ccc(N2C(=O)c3ccc(C(=O)Nc4ccc(NC(C)=O)cc4)cc3C2=O)cc1	-3.33
COc1ccc(Cl)cc1NC(=O)c1cc(-c2ccco2)on1	11.9
O=C(COc1ccc(Cl)cc1)NCCCNC(=O)c1cccnc1	-8.28

Compound	hERG current change (%, negative = inhibition) at 10uM [%]
COC(=O)C1=C(C)N=C2SC(C)C(=O)N2C1c1ccc(C(=O)OC)cc1 (centres unmarked)	4.87
Cn1ncc(C#N)c1NC(=O)C1CC(c2ccc(Cl)c(Cl)c2)=NO1 (centres unmarked)	-9.94
O=S(=O)(NCC(c1ccc2c(c1)OCO2)N1CCOCC1)c1ccccc1 (centres unmarked)	-15.1
O=C(O)CSc1nnc(-c2ccc(Cl)cc2Cl)n1-c1ccc(Br)cc1	7.53
CC(C)(C)OC(=O)NN1CC(=O)N2Cc3ccccc3C[C@@H]2C1=O	9.33
COc1cc(OC)cc(C(=O)O/N=C(\N)c2ccccn2)c1	7.21
COC(=O)CCCCCCCCC(O)C[N+]1(C)CCOCC1.[I-] (centres unmarked)	10.2
COc1ccc(-c2ccc(=O)n(CC(=O)Nc3nnc(C(C)C)s3)n2)cc1OC	11.9
COc1cccc2cc(C(=O)n3ccc(C)n3)c(=O)oc12	8.24
CCCCSc1nc2c(c(=O)[nH]1)CCC2	12.4
CCCOc1ccc(/C=C/C(=O)NCc2ccccc2)cc1	18.8
Cc1nc2ccc(S(=O)(=O)N(C)CC(=O)NC(C)c3ccccc3)cc2s1 (centres unmarked)	17.1
Cc1cc(C)n(CCC(=O)N=Nc2c(O)[nH]c3ccc(Br)cc23)n1	7.78
CN(C)S(=O)(=O)c1ccc(C(=O)NCCS(=O)(=O)N2CCN(c3ccc(F)cc3)CC2)cc1	1.61
Cc1ccc(-n2c(C)cc(/C=c3/sc4nc5ccccc5n4c3=O)c2C)cc1	9.55
CCNC(=O)CNC(=O)c1nn(Cc2ccccc2)c(=O)c2ccccc12	-2.55
CCc1nc2ccc(C(=O)N3CCN(c4cccc(C)c4C)CC3)cc2nc1CC	1.03
CCN(CC)c1ccc(C2C(C(C)=O)C(=O)CC(C)(O)C2C(C)=O)cc1 (centres unmarked)	-13.4
O=C(COC(=O)c1ccc(F)c(S(=O)(=O)N2CCOCC2)c1)NCc1ccco1	-3.72

Compound	hERG current change (%, negative = inhibition) at 10uM [%]
C=CCSc1nc(C)c(CC(=O)OCCCC)c(=O)[nH]1	0.959
COCCn1c(SCC(=O)NC(=O)NC(C)(C)C)nc2ccccc21	-17
CC(C)c1ccc(OCc2ccc(C(=O)N(C)C)o2)cc1	-3.03
O=C(COC(=O)c1cc2c(s1)CCCC2)Nc1ccc(Cl)cn1	1.56
Cc1ccc(C)c(OCC(O)CN2CCC(C)CC2)c1C (centres unmarked)	-33.6
O=C1/C(=C/c2ccncc2)CCc2ccccc21	-35.5
O=S(=O)(Nc1cc2nc3ccccc3nc2n1Cc1ccccc1)c1ccc(Cl)cc1	8.22
CCc1nn2c(N3CCOCC3)cc(C)nc2c1-c1ccccc1	15
CC(=O)Nc1ccc(S(=O)(=O)Nc2cccc(-c3ccc4nncn4n3)c2)cc1	-11.2
O=C(Nc1ccc2c(c1)OCO2)C1CCCN1C(=O)NCc1ccccc1 (centres unmarked)	-4.95
Cc1cccc(NC(=O)CN2C(=O)S/C(=C\c3ccccn3)C2=O)c1	30.2
CCCOc1ccc(C2C(C(=O)/C=C/c3ccco3)=C(O)C(=O)N2CCN2CCOCC2)cc1OC (centres unmarked)	1.81
CCOc1ccc(C(=O)NCC(=O)OCC(=O)c2ccc3c(c2)-c2ccccc2C3)cc1	4.05
CCCC[N+]1(C)[C@@H]2CC(OC(=O)[C@H](CO)c3ccccc3)C[C@H]1[C@@H]1O[C@@H]12.[Br-] (some centres unmarked)	5.61
CN(C)c1ccc(N=Cc2nc(-c3ccccc3)oc2OC(=O)c2cccc(Cl)c2)cc1	4.46
Cc1ccc(NC(=O)CN(C)S(=O)(=O)c2cccc3cccnc23)c(C)c1	4.3
CCCn1c(OC)nc2c1c(=O)n(C)c(=O)n2C	-4.62
CCOC(=O)C(NCCOC)(NC(C)=O)C(F)(F)F (centres unmarked)	11.4
